Laboratory results as given in the supplement of paper PMC3334620.
Over roughly 33,000 sequences, “E-score (-0.5 to 0.5)” has its median near -0.021; the highest 2% begin near 0.32. The list shows a part of the results.

These sequences were tested against T1, Zap1 (UniProt P47043) (assay: PBM E-score (8-mer binding enrichment) (E-score (-0.5 to 0.5)); higher = stronger / more preferred TF binding; most listed sequences are background and not binding sites). Conditions: protein concentration: 200 nM; construct: GST-full length.
T1 sequence: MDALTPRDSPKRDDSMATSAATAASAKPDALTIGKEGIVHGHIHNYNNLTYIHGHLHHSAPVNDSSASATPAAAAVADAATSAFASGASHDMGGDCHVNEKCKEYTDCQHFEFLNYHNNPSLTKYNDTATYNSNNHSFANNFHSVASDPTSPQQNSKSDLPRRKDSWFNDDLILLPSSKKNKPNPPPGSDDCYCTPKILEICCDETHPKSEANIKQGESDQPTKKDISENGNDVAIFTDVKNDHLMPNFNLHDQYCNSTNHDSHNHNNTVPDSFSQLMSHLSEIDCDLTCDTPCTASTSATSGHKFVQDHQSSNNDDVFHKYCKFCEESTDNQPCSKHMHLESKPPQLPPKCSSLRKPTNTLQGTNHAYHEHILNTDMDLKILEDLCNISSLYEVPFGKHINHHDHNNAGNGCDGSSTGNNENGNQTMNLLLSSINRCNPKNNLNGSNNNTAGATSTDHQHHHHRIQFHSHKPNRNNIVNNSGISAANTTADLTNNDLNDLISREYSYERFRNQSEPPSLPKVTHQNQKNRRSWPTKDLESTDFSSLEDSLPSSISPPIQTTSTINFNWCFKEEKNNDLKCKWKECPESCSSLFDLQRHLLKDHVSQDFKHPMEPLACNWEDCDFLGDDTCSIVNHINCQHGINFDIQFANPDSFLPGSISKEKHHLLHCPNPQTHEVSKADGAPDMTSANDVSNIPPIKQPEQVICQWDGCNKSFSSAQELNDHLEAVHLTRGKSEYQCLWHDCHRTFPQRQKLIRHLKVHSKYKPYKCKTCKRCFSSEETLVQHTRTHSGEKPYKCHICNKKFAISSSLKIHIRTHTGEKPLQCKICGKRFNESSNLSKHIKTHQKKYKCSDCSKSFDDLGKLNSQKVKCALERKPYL
Method: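 Universal 'all 10-mer' protein binding microarrays (Agilent AMADID 015681) probed with GST-tagged S. cerevisiae TFs (full-length or DBD) made by in vitro transcription/translation (PURExpress), about 100-200 nM. Bound TF was detected with fluorescent anti-GST. Each ungapped 8-mer (which stands for itself and its reverse complement) is scored by the PBM enrichment score (E-score), a modified Wilcoxon-Mann-Whitney statistic from -0.5 to +0.5, computed with the Universal PBM Analysis Suite. Scale: above 0.35 generally sequence-specific binding.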

Sequence | PBM E-score
CGATGCTA | -0.194
CATGACAC | 0.0287
CAAGTCTG | -0.235
CCAACATA | 0.111
CGTGCGCA | 0.0755
CAGGGTGA | 0.313
CCCTAAGC | -0.159
TGGCCGAA | 0.0306
GTTCGGTA | 0.0896
CTCTCATA | -0.0179
CGTCTACA | -0.302
AACGGATG | -0.0695
GTTACATA | 0.195
ACTTTGTG | -0.0505
CGCCACGA | -0.0226
ACCAAATA | 0.232
ACGCGGGA | -0.0381
GCCTGCAC | -0.228
TAATTGTA | 0.144
AGAACCTC | 0.181
CTGGGGAA | -0.0513
ATCATCAC | 0.131
CCGTAGCG | -0.2
ACTTCGCA | 0.0135
ACACCGTA | 0.0263

Sequence | PBM E-score
CCTCATCC | -0.117
CAGGTAGC | -0.0594
CTACGGGC | -0.284
TCAAGTGA | 0.025
TCTCAGAA | -0.0113
TGGGAAAA | -0.143
CAATGCGC | -0.152
AAGCATTA | -0.0508
AATATTGA | -0.00618
CCCTACCC | 0.153
GACGTGCA | -0.165
AGATGACT | -0.183
AGGCCTCG | -0.0636
AATATTCG | 0.0792
GCAAACGC | -0.15
AAGGACGA | -0.212
GACGTATC | -0.225
CAATCTCG | -0.161
AAAAGAGG | -0.0555
CGACGCCG | -0.154
ATGCTCCA | -0.126
GAATTCGC | -0.213
GCTTTGAC | 0.0804
ACCGACAC | -0.196
ACCGGGCC | 0.0478

Sequence | PBM E-score
AGGTATAC | 0.19
TAGTAGGA | -0.0963
ACTAACAA | 0.166
TCCAACAA | -0.0932
GACGGGAA | -0.158
GAAGTCCC | -0.218
AGAGTTGA | -0.0238
CATTTCTA | 0.0533
AGATTTCG | 0.0795
ACCGGCCG | 0.229
TGTACCAA | 0.0671
GAACCCAC | 0.226
GTGACCAA | 0.305
ATGATACG | 0.0877
CTCTGGCC | -0.0988
ATTGGCTA | -0.0165
CTTTATCC | 0.0955
GTAACGTA | 0.0108
CAAGCAAC | 0.021
ACCGAAGA | 0.162
CTCGGCAA | -0.2
AATTCTAG | 0.132
AATCAATT | 0.0523
ATACGTCC | -0.118
AGCTAGCG | -0.239

Sequence | PBM E-score
AGGATACC | 0.28
AGGCACTA | -0.077
AGTTTAGA | 0.119
AAACACGT | -0.112
ACAAGTCG | -0.317
ACAGATCC | -0.0482
AGGTGGAA | 0.049
CCTATAAG | -0.0114
AGTCCTGC | -0.122
CTGAGCAC | -0.0677
CCCCCTGC | -0.372
AACTATCT | -0.149
CTCGTCGA | -0.0885
GCCTCCCC | -0.0546
AACTGAAT | -0.137
GAGGTACA | 0.155
AAGGGGTC | 0.264
GCAGACGC | -0.00899
GTAATCAA | 0.146
CTATTCGC | -0.173
CGACATTC | -0.104
AGAGTACT | -0.144
AGGGTGAG | -0.118
CAACTTGG | 0.0848
GACCTTAA | 0.324

Sequence | PBM E-score
CTATATCC | -0.088
AGGGTGAC | 0.415
ATATCCTC | 0.047
ATTCATAA | 0.178
CCGCACAG | -0.0714
CGGCAAGC | -0.226
CCCTGGCG | -0.0221
AGGCAATG | -0.154
CTCGTGCC | -0.167
CCATGACA | -0.0401
CTGCTGGA | -0.298
ACCTATTA | 0.195
ATAAACTC | 0.0394
CAGTATCG | -0.13
ACAAGCCA | -0.0246
CCGATAGA | 0.00345
CCTTTAGA | 0.276
CAACAACG | 0.00366
CAGTAAAA | 0.191
ATCGTGAA | -0.0748
ACGGTATC | 0.13
AACGGCCC | -0.0782
CCGTGGTA | 0.0721
CTAATGAC | -0.155
CCAGAAAA | 0.164

Sequence | PBM E-score
CATCATAA | 0.105
GCAATAGC | -0.122
GGTCGACC | 0.257
CTTCTTCA | -0.13
CGCAATGA | -0.0116
ATCAGTAA | 0.206
CATGCCCG | -0.161
GCAAAATA | 0.0733
TAAGAATA | 0.00471
ATGCGTCG | -0.176
AGAATAAA | 0.208
ACAGAGTG | 0.032
GACGGCTA | -0.137
AGGGACAT | 0.066
AATGATAT | 0.0303
GTGCCTAA | -0.219
AGCGACCG | -0.13
AACGGCGG | -0.0986
CAACAGGG | 0.221
CTTGTTCA | 0.0285
ATAACGAA | -0.0204
ACAGTGGG | -0.0235
AAAGTATA | -0.00639
CCGTACGG | 0.162
ACCTCCGC | 0.0321

Sequence | PBM E-score
CAGACCAA | 0.0235
CAAGGTTA | 0.466
AATAATTG | 0.0626
CAAGCACA | -0.188
GTCGTGAA | -0.0617
TGCCAGCA | -0.154
GCGGTACC | 0.418
GAATTAGC | -0.127
TGCGCAAA | -0.0405
AACACACA | 0.12
GAGATCAC | -0.00515
AAAGTAAT | 0.205
AGAAGTAC | -0.115
TCACAGCA | 0.124
CGGACACC | -0.0604
GTCCGACA | -0.0779
GGGCGTTA | 0.0169
AGCGGAGC | -0.251
TAGTCTGA | -0.0314
ATGATTTA | 0.095
ACACCGAC | 0.078
CATCGGGA | 0.0534
GGCAAATA | -0.0519
CAGGAGGG | 0.143
GTCCCATA | -0.0204

Sequence | PBM E-score
CCGCCGCA | -0.00377
CCCGGATA | -0.162
CTCTCATC | -0.0792
CGTCCACA | -0.192
CGGATCAA | -0.0428
CTCCGAGC | -0.162
CATAATTA | 0.169
AAGATGTA | -0.13
ACCCTAAT | 0.407
ACGGGTTC | 0.0245
GGCTCTAC | -0.121
TAAGACAA | 0.0851
CTTCCCAC | -0.103
GCAACCAA | 0.231
GGAACACC | 0.105
AGAACTAA | 0.0739
GACCCTCC | 0.277
TCAACGCA | -0.0106
ATCGACGG | -0.281
GACGGTGA | -0.147
CGTAGAGC | -0.0104
CCATTCGA | -0.0556
CGTTGCCA | -0.125
ATCGATTC | -0.119
GGGCTGAA | -0.0884

Sequence | PBM E-score
AGAGATAA | -0.065
CACACACG | 0.084
ATCGGCTG | -0.129
AACGCAGA | -0.109
CGTGGACC | -0.0391
AGTTTTTC | 0.183
GTGTCCCA | 0.137
GGAGGCAA | -0.188
CAGCGAAC | -0.0226
AGGTCGAG | -0.0658
GCGCAATA | -0.00572
GGCACATA | 0.00642
AGAAGGGC | -0.092
ATCAGGGG | -0.119
CGGGCACG | -0.151
AACCTTCT | 0.26
GTAATATA | 0.231
ACGTCGCA | -0.0322
ACTGGGCA | -0.283
